# Test results reported in the supplement of paper PMC12217912.
# Some of the results follow. Sequences were assembled here from the parent chain. Values near 0.05 are background.
# B1: TEV protease; numbered along this chain (parent)
# chain: MGESLFKGPRDYNPISSSICHLTNESDGHTTSLYGIGFGPFIITNKHLFRRNNGTLVVQSLHGVFKVKDTTTLQQHLVDGRDMIIIRMPKDFPPFPQKLKFREPQREERICLVTTNFQTKSMSSMVSDTSCTFPSGDGIFWKHWIQTKDGQCGSPLVSTRDGFIVGIHSASNFTNTNNYFTSVPKNFMELLTNQEAQQWVSGWRLNADSVLWGGHKVFMVKPEEPFQPVKEATQL
# Variants of: B1
# Experiment: raw area under fraction-flipped curve 0-4 h after induction (AUC4h, not background-subtracted), DNA-recorder readout of cleavage of the substrate (dimensionless); higher = more cleavage of the substrate by the protease variant
# Conditions: temperature: 34 °C; time window: 0-4 h after rhamnose induction
# 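Further: Bxb1 expression induced with 0.2% (w/v) L-rhamnose at OD600 near 0.5, cultures sampled hourly, flipped fraction per protease–substrate barcode pair counted by paired-end Illumina sequencing.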
Variant,area with substrate ENLYFQC,area with substrate ENLYFQD,area with substrate ENLYFQF,area with substrate ENLYFQG,area with substrate ENLYFQH,area with substrate ENLYFQI,area with substrate ENLYFQK,area with substrate ENLYFQL,area with substrate ENLYFQN,area with substrate ENLYFQR,area with substrate ENLYFQS,area with substrate ENLYFQT,area with substrate ENLYFQV,area with substrate ENLYFQW,area with substrate ENLYFQE,area with substrate ENLYFQQ,area with substrate ENLYFQY,area with substrate ENLYFQM,area with substrate ENLYFQP
MGESLFKGPRDYNPISSSICHLTNESDGHTTSLYGIGFGPFIITNKHLFRRNNGTLVVQSLHGVFKVKDTTTLQQHLVDGRDMIIIRMPKDFPPFPQKLKFREPQREERICLVTTNFQTKSMSSMVSDTSCTFPSGDGIFWKHWIQTKDGQAGSPLVSTRDGFIVGIHSASNFTNTNNYFTSVPKNFMELLTNQEAQQWVSGWRLNADSVLWGGHKVFMVKPEEPFQPVKEATQL [C152A],0.0892,0.0656,0.0812,0.0626,0.0668,0.0604,0.0577,0.0442,0.0575,0.0555,0.0759,0.0566,0.0613,0.0555,–,–,–,–,–
MGESLFKGPRDYNPISSSICHLTNESDGHTTSLYGIGFGPFIITNKHLFRRNNGTLVVQSLHGVFKVKDTTTLQQHLVDGRDMIIIRMPKDFPPFPQKLKFREPQREERICLVTTNFQTKSMSSMVSDTSCTFPSGDGIFWKHWIQTKDGQVGSPLVSTRDGFIVGIHSASNFTNTNNYFTSVPKNFMELLTNQEAQQWVSGWRLNADSVLWGGHKVFMVKPEEPFQPVKEATQL [C152V],0.0737,–,–,0.0551,–,0.0541,0.0589,0.0516,0.0722,0.0573,0.0622,0.06,0.0663,0.0609,0.0619,0.0497,0.0573,–,–
MGESLFKGPRDYNPISSSICHLTNESDGHTTSLYGIGFGPFIITNKHLFRRNNGTLVVQSLHGVFKVKDTTTLQQHLVDGRDMIIIRMPKDFPPFPQKLKFREPQREERICLVTTNFQTKSMSSMVSDTSCTFPSGDGIFWKHWIQTKDGQKGSPLVSTRDGFIVGIHSASNFTNTNNYFTSVPKNFMELLTNQEAQQWVSGWRLNADSVLWGGHKVFMVKPEEPFQPVKEATQL [C152K],0.0094,–,–,–,0.084,0.0634,0.0563,0.0537,–,0.0841,0.0621,0.0525,–,0.0588,–,–,0.0659,–,–
MGESLFKGPRDYNPISSSICHLTNESDGHTTSLYGIGFGPFIITNKHLFRRNNGTLVVQSLHGVFKVKDTTTLQQHLVDGRDMIIIRMPKDFPPFPQKLKFREPQREERICLVTTNFQTKSMSSMVSDTSCTFPSGDGIFWKHWIQTKDGQCGSPLVSTYDGFIVGIHSASNFTNTNNYFTSVPKNFMELLTNQEAQQWVSGWRLNADSVLWGGHKVFMVKPEEPFQPVKEATQL [R160Y],0.119,–,0.0882,0.0859,0.101,–,0.0638,0.0797,–,0.0707,0.105,0.0657,–,0.0611,0.0761,–,0.089,0.0878,0.0486
MGESLFKGPRDYNPISSSICHLTNESDGHTTSLYGIGFGPFIITNKHLFRRNNGTLVVQSLHGVFKVKDTTTLQQHLVDGRDMIIIRMPKDFPPFPQKLKFREPQREERICLVTTNFQTKSMSSMVSDTSCTFPSGDGIFWKHMIQTKDGQCGSPLVSTRDGFIVGIHSASNFTNTNNYFTSVPKNFMELLTNQEAQQWVSGWRLNADSVLWGGHKVFMVKPEEPFQPVKEATQL [W144M],0.0994,–,0.0549,–,–,0.0608,–,0.0498,0.0701,0.0522,0.0884,0.0587,0.0514,0.0636,–,0.0722,0.077,0.0747,0.0588
MGESLFKGPRDYNPISSSICHLTNESDGHTTSLYGIGFGPFIITNKHLFRRNNGTLVVQSLHGVFKVKDTTTLQQHLVDGRDMIIIRMPKDFPPFPQKLKFREPQREERICLVTTNFQTKSMSSMVSDTSCTFPSGDGIFWKHPIQTKDGQCGSPLVSTRDGFIVGIHSASNFTNTNNYFTSVPKNFMELLTNQEAQQWVSGWRLNADSVLWGGHKVFMVKPEEPFQPVKEATQL [W144P],0.0853,–,–,0.0809,0.0713,0.0556,0.0555,0.0537,0.0642,0.052,0.0852,0.0556,0.0703,–,–,–,0.0688,–,–
MGESLFKGPRDYNPISSSICHLTNESDGHTTSLYGIGFGPFIITNKHLFRRNNGTLVVQSLHGVFKVKDTTTLQQHLVDGRDMIIIRMPKDFPPFPQKLKFREPQREERICLVTTNFQTKSMSSMVSDTSCTFHSGDGIFWKHWIQTKDGQCGSPLVSTRDGFIVGIHSASNFTNTNNYFTSVPKNFMELLTNQEAQQWVSGWRLNADSVLWGGHKVFMVKPEEPFQPVKEATQL [P134H],0.0962,0.0619,0.0606,0.0842,0.0705,0.0471,0.0552,0.0622,0.0623,0.0557,0.0764,0.062,0.072,0.0494,–,–,0.0831,0.0726,0.048
MGESLFKGPRDYNPISSSICHLTNESDGHTTSLYGIGFGPFIITNKHLFRRNNGTLVVQSLHGVFKVKDTTTLQQHLVDGRDMIIIRMPKDFPPFPQKLKFREPQREERICLVTTNFQTKSMSSMVSITSCTFPSGDGIFWKHWIQTKDGQCGSPLVSTRDGFIVGIHSASNFTNTNNYFTSVPKNFMELLTNQEAQQWVSGWRLNADSVLWGGHKVFMVKPEEPFQPVKEATQL [D128I],0.121,0.0787,–,–,–,0.0664,–,0.0727,0.0982,0.0566,0.127,0.0622,0.0361,0.0775,–,–,0.0785,0.0919,0.0596
MGESLFKGPRDYNPISSSICHLTNESDGHTTSLYGIGFGPFIITNKHLFRRNNGTLVVQSLHGVFKVKDTTTLQQHLVDGRDMIIIRMPKDFPPFPQKLKFREPQREERICLVTTNFQTKSMSSMVSKTSCTFPSGDGIFWKHWIQTKDGQCGSPLVSTRDGFIVGIHSASNFTNTNNYFTSVPKNFMELLTNQEAQQWVSGWRLNADSVLWGGHKVFMVKPEEPFQPVKEATQL [D128K],0.14,–,0.0853,–,–,–,–,0.0511,0.0813,0.0538,0.0968,0.0553,–,0.0705,–,0.0532,–,–,–
